# Source: the supplement of paper PMC4604168 (melanoma cell lines)
# This is one part of the list. Single values are uncertain, as repeats are few or missing.
# Key:
# Assay in all cases: cell count relative to DMSO control; melanoma cells; higher = more viable cells
# Details in all cases: library dose: standard library concentration; 72 h
# G361 = test system: G361
# IPC-298 = test system: IPC-298
# IST-MEL1 = test system: IST-MEL1
# LB2518-MEL = test system: LB2518-MEL
# LOXIMVI = test system: LOXIMVI
# MEL-HO = test system: MEL-HO
# MZ2-MEL = test system: MZ2-MEL
# MeWo = test system: MeWo
# RPMI7951 = test system: RPMI7951
# RVH-421 = test system: RVH-421
# SkMel28 = test system: SkMel28
# SkMel2 = test system: SkMel2
# SkMel30 = test system: SkMel30
# SkMel5 = test system: SkMel5
# UACC257 = test system: UACC257
# UACC62 = test system: UACC62
# WM115 = test system: WM115
# WM1716 = test system: WM1716
# WM1745 = test system: WM1745
# WM3526 = test system: WM3526
# 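Note: cells treated in 1,536-well plates, then fixed and DAPI-stained, with nuclei counted from automated high-throughput microscope images.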
Compound,cell count (G361) [%],cell count (IPC-298) [%],cell count (IST-MEL1) [%],cell count (LB2518-MEL) [%],cell count (LOXIMVI) [%],cell count (MEL-HO) [%],cell count (MZ2-MEL) [%],cell count (MeWo) [%],cell count (RPMI7951) [%],cell count (RVH-421) [%],cell count (SkMel28) [%],cell count (SkMel2) [%],cell count (SkMel30) [%],cell count (SkMel5) [%],cell count (UACC257) [%],cell count (UACC62) [%],cell count (WM115) [%],cell count (WM1716) [%],cell count (WM1745) [%],cell count (WM3526) [%]
"C[C@@H]1CCN(C(=O)CC#N)C[C@@H]1N(C)c1ncnc2[nH]ccc12 + COc1cc(N2CCC(N3CCN(C)CC3)CC2)ccc1Nc1ncc(Cl)c(Nc2ccccc2S(=O)(=O)C(C)C)n1 [NVP-TAE684] (first compound 5 µM, partner dose 0.4 µM)",93.4,93,101,96.1,83.7,90,84.6,66.7,61.1,90.4,64.9,68,113,67.5,78.9,65.1,60.7,72.9,49.1,84.3
"O=C(Nc1cccc(Cl)c1)Nc1ncc(CCNc2ncnc3ccsc23)s1 + COc1cc(N2CCC(N3CCN(C)CC3)CC2)ccc1Nc1ncc(Cl)c(Nc2ccccc2S(=O)(=O)C(C)C)n1 [NVP-TAE684] (first compound 0.004 µM, partner dose 0.4 µM)",87.2,91.3,80.1,71,109,98.4,77.3,68.7,46.2,100,50.4,73.1,112,70.1,84.5,112,44.6,75.9,35.4,77.5
"O=c1[nH]nc(Sc2ncc([N+](=O)[O-])s2)n1-c1ccc2c(c1)OCCO2 + CO[C@H]1C[C@@H]2CC[C@@H](C)[C@@](O)(O2)C(=O)C(=O)N2CCCC[C@H]2C(=O)O[C@H]([C@H](C)C[C@@H]2CC[C@@H](OCCO)[C@H](OC)C2)CC(=O)[C@H](C)/C=C(\C)[C@@H](O)[C@@H](OC)C(=O)[C@H](C)C[C@H](C)/C=C/C=C/C=C/1C [everolimus] (first compound 1 µM, partner dose 0.1 µM)",53.5,78.6,77.5,70,44.7,59.2,64.9,62.8,51.5,63.7,35.6,64.3,61.5,54.9,76.8,55.3,74.1,58.9,64,59.8
"O=c1[nH]nc(Sc2ncc([N+](=O)[O-])s2)n1-c1ccc2c(c1)OCCO2 + Cn1cncc1[C@@](N)(c1ccc(Cl)cc1)c1ccc2c(c1)c(-c1cccc(Cl)c1)cc(=O)n2C [tipifarnib] (first compound 1 µM, partner dose 0.05 µM)",82,109,76.8,84.2,96.9,109,112,93.1,78.5,91.1,81.8,91.6,106,72.8,97.1,92.7,63.3,79.2,126,86.2
"O=C(O)c1ccc(-c2c[nH]c3ncc(-c4ccccc4)cc23)cc1C1CCCC1 + c1cc(-c2cnn3cc(-c4ccc(OCCN5CCCCC5)cc4)cnc23)ccn1 [Dorsomorphin] (first compound 0.8 µM, partner dose 2 µM)",32.2,73.6,63.9,75.8,101,69.4,58.6,61.6,56.4,105,57.9,58.7,87.6,62.7,68.1,87.2,81.1,72.3,61.6,71.6
"Cn1cncc1[C@@](N)(c1ccc(Cl)cc1)c1ccc2c(c1)c(-c1cccc(Cl)c1)cc(=O)n2C [tipifarnib] + COc1ccc(-c2ccc3c(N4CCOCC4)nc(N4C[C@@H](C)O[C@@H](C)C4)nc3n2)cc1CO [KU0063794] (first compound 0.05 µM, partner dose 0.1 µM)",76.4,65,76.1,85.6,86.1,76.2,90,70.8,71.4,85.7,59.2,64,77.9,61.5,85.8,74.6,64.1,67.2,90.1,71
"O=C(O)c1ccc(-c2c[nH]c3ncc(-c4ccccc4)cc23)cc1C1CCCC1 + N#Cc1c(O)c2c(-c3ccc(-c4ccccc4O)cc3)csc2[nH]c1=O [A769662] (first compound 0.8 µM, partner dose 10 µM)",77.9,95.3,75.4,90.5,118,82.7,52.4,94.3,68.3,86.2,74.4,83.8,99.1,102,85.2,97.1,2.48,95.6,89.6,94.9
"O=C(O)c1ccc(-c2c[nH]c3ncc(-c4ccccc4)cc23)cc1C1CCCC1 + COc1cc(N2CCC(N3CCN(C)CC3)CC2)ccc1Nc1ncc(Cl)c(Nc2ccccc2S(=O)(=O)C(C)C)n1 [NVP-TAE684] (first compound 0.8 µM, partner dose 0.4 µM)",53.9,93.9,77.8,82.5,82.9,65.1,71.6,62.2,70,73.9,70,67.1,107,68.3,66,87,62.8,78.2,59.3,71.6
"COc1cc(Nc2ncc(F)c(Nc3ccc4c(n3)NC(=O)C(C)(C)O4)n2)cc(OC)c1OC [Tamatinib] + CO[C@@H]1[C@H](N(C)C(=O)c2ccccc2)C[C@H]2O[C@]1(C)n1c3ccccc3c3c4c(c5c6ccccc6n2c5c31)C(=O)NC4 [Midostaurin] (first compound 2 µM, partner dose 0.4 µM)",47.8,43,25.7,38.4,15,45.1,37.3,47.7,8.39,53.6,53.3,38.5,57.7,37.2,56.8,56.4,42.6,23.5,15,47.1
"C[C@@H]1CCN(C(=O)CC#N)C[C@@H]1N(C)c1ncnc2[nH]ccc12 + N#Cc1c(O)c2c(-c3ccc(-c4ccccc4O)cc3)csc2[nH]c1=O [A769662] (first compound 5 µM, partner dose 10 µM)",109,99.7,92.6,106,222,112,107,82.3,146,78.1,78.9,88.7,93.2,96.6,104,114,98.9,103,103,96.8
"COc1cc(Nc2ncc(F)c(Nc3ccc4c(n3)NC(=O)C(C)(C)O4)n2)cc(OC)c1OC [Tamatinib] + O=C(Nc1ccccc1)c1cc([N+](=O)[O-])ccc1Cl [GW9662] (first compound 2 µM, partner dose 10 µM)",71.8,76.9,75.3,55.2,29.3,63,46.9,60.8,42.9,75.6,51.9,54.7,105,51.3,60.2,105,66.1,79,9.85,78.1
"O=c1[nH]nc(Sc2ncc([N+](=O)[O-])s2)n1-c1ccc2c(c1)OCCO2 + CC1(C)CCC(c2ccc(Cl)cc2)=C(CN2CCN(c3ccc(C(=O)NS(=O)(=O)c4ccc(N[C@H](CCN5CCOCC5)CSc5ccccc5)c(S(=O)(=O)C(F)(F)F)c4)cc3)CC2)C1 [ABT263] (first compound 1 µM, partner dose 2 µM)",77.9,102,77,77.8,19.4,65.8,83,82.7,30.8,44.2,58.6,68.6,68,82.9,31.5,41.5,72.6,52.9,3.25,77.7
"CC1(C)NC(=O)N(c2ccc([N+](=O)[O-])c(C(F)(F)F)c2)C1=O [nilutamide] + c1cc(-c2cnn3cc(-c4ccc(OCCN5CCCCC5)cc4)cnc23)ccn1 [Dorsomorphin] (first compound 5 µM, partner dose 2 µM)",81.8,95.5,92.9,62.1,108,106,81.2,75.3,81.8,132,46.4,84.4,83,70.2,63.6,68.9,71.4,72.8,60.3,80.2
"C[C@@H]1CCN(C(=O)CC#N)C[C@@H]1N(C)c1ncnc2[nH]ccc12 + O=C1NC(=O)/C(=C/c2ccc(-c3ccc(F)cc3O)o2)S1 [AS252424] (first compound 5 µM, partner dose 5 µM)",73.1,94.4,88.2,95.9,91.6,71.3,86.9,82.5,82.6,102,88.9,80.2,78.5,71.5,113,129,103,99.9,85.1,96.5
"O=c1[nH]nc(Sc2ncc([N+](=O)[O-])s2)n1-c1ccc2c(c1)OCCO2 + CC1(C)NC(=O)N(c2ccc([N+](=O)[O-])c(C(F)(F)F)c2)C1=O [nilutamide] (first compound 1 µM, partner dose 5 µM)",95.1,106,83.8,85.8,80.1,91.7,121,97.7,107,95.3,100,103,87,125,90.8,103,104,97.2,103,84.4
"O=C(Nc1cccc(Cl)c1)Nc1ncc(CCNc2ncnc3ccsc23)s1 + COc1ccc2c(c1)CCC1C2CCC2(C)C(NCCCCCCN3C(=O)C=CC3=O)CCC12 [U73122] (first compound 0.004 µM, partner dose 2 µM)",78.7,116,91,85.9,71.5,102,84,47.6,38,73.6,112,98.6,96.9,64.8,80.5,68.9,41,58.4,83.5,72.9
